Values after ≈ are worked out from the molar mass of the structure shown. Like-named read-outs stand apart in the source and are kept apart here.
Tests used:
[1] = target: Mtb HadAB (Mycobacterium tuberculosis, UniProt I6WYY7+P9WFK1); conditions: read-out: Ki Mtb HadAB; cited from earlier work
[2] = system: Escherichia coli ATCC 25922; test: ESKAPE antimicrobial screening, microdilution broth MIC; assay type: cell-based; conditions: read-out: MIC Escherchia coli (ATCC 25922)
[3] = system: Acinetobacter baumannii ATCC 19606; test: as above; assay type: cell-based
[4] = system: Enterobacter cloacae ATCC 700323; test: as above; assay type: cell-based
[5] = system: Klebsiella pneumoniae ATCC BAA-1705; test: as above; assay type: cell-based
[6] = system: Pseudomonas aeruginosa ATCC 27853; test: as above; assay type: cell-based
[7] = system: Staphylococcus aureus ATCC 25923; test: as above; assay type: cell-based
[8] = Escherichia coli, ATCC25922, MH broth, 16 hours, tested 0.25 – 128 µM
[9] = Acinetobacter baumannii, ATCC19606, MH broth, 16 hours, tested 0.25 – 128 µM
[10] = Enterobacter cloacae, ATCC700323, MH broth, 16 hours, tested 0.25 – 128 µM
[11] = Klebsiella pneumoniae, ATCCBAA1705, MH broth, 16 hours, tested 0.25 – 128 µM
[12] = Pseudomonas aeruginosa, ATCC27853, MH broth, 16 hours, tested 0.25 – 128 µM
[13] = Staphylococcus aureus, ATCC25923, MH broth, 16 hours, tested 0.25 – 128 µM
[14] = MH broth, 16 hours, tested 0.25 – 128 µM

Compound | MIC [2, 8] | MIC [3, 9] | MIC [4, 10] | MIC [5, 11] | MIC [6, 12] | MIC [7, 13] | other results
O=C(/C=C/c1ccc(O)c(O)c1)c1ccc(O)cc1O [butein] |  |  |  |  |  |  | Ki [1]: 13.5 µM
CS(=O)(=O)NC(=O)CCc1cn(-c2ccc(Br)cc2)nc1-c1ccncc1 [Compound 1] | > 128 µM | > 128 µM | > 128 µM | > 128 µM | > 128 µM | > 128 µM | 
gentamycin [reference compound] |  |  |  |  |  |  | MIC [2, 14]: 2 µM; MIC [3, 14]: 16 µM; MIC [4, 14]: 2 µM; MIC [5, 14]: 4 µM; MIC [6, 14]: 2 µM; MIC [7, 14]: 0.5 µM
NC[C@H]1O[C@H](O[C@H]2[C@H](O)[C@@H](O[C@H]3O[C@H](CO)[C@@H](O)[C@H](N)[C@H]3O)[C@H](N)C[C@@H]2N)[C@H](O)[C@@H](O)[C@@H]1O [Kanamycin, kanamycin, reference compound] |  |  |  |  |  |  | MIC [2]: 4 µM (≈ 1.94 µg/mL); MIC [3]: 16 µM (≈ 7.75 µg/mL); MIC [4]: 8 µM (≈ 3.88 µg/mL); MIC [5]: > 32 µM; MIC [6]: > 32 µM; MIC [7]: 2 µM (≈ 0.969 µg/mL)
CS(=O)(=O)NC(=O)CCc1cn(-c2ccc(Cl)cc2)nc1-c1ccc(Cl)cc1 [Compound 2] | > 128 µM | > 128 µM | > 128 µM | > 128 µM | > 128 µM | 128 µM (≈ 56.1 µg/mL) | MIC [7, 14]: 128 µM (≈ 56.1 µg/mL)
COc1c(N2C[C@@H]3CCCN[C@@H]3C2)c(F)cc2c(=O)c(C(=O)O)cn(C3CC3)c12 [Moxifloxacin, moxifloxacin, reference compound] | 0.06 µM (≈ 0.0241 µg/mL) | 0.5 µM (≈ 0.201 µg/mL) |  | > 32 µM | 2 µM (≈ 0.803 µg/mL) | 0.06 µM (≈ 0.0241 µg/mL) | 
CS(=O)(=O)NC(=O)NCc1cn(-c2ccc(C(F)(F)F)nc2)nc1-c1ccncc1 [Compound 11] | > 128 µM | > 128 µM | > 128 µM | > 128 µM | > 128 µM | > 128 µM | 
CS(=O)(=O)NC(=O)NCc1cc(-c2ccc(Br)cc2)oc1-c1ccncc1 [Compound 14] | 128 µM (≈ 57.6 µg/mL) | > 128 µM | > 128 µM | > 128 µM | > 128 µM | > 128 µM | 
O=c1c(O)c(-c2ccc(O)c(O)c2)oc2cc(O)ccc12 [fisetin] |  |  |  |  |  |  | Ki [1]: 10.9 µM

From paper PMC9673142, “1,3-Diarylpyrazolyl-acylsulfonamides Target HadAB/BC Complex in Mycobacterium tuberculosis” (ACS Infectious Diseases, 2022)
